In the supplement of paper PMC9446081:
Hit rate of the full screen: of about 39,000 compounds, about 220 (0.56%) showed activity. The list shows a part of the results.

test system: Escherichia coli K-12 BW25113; test: relative growth (OD600 normalised to plate interquartile mean) (fraction); higher = less growth inhibition, active = 0.2 or less; details: 50 µM; LB; incubation time: overnight (16-24 h)
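Note: static incubation at 37 °C against the wild-type strain, values averaged over two biological replicates.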

SMILES	relative growth
C[C@@H]1CCCCO[C@H](CN(C)Cc2ccncc2)[C@@H](C)CN([C@H](C)CO)C(=O)c2cc(NC(=O)CCCCCC(=O)Nc3ccccc3N)ccc2O1	inactive: 1.01
CCO[C@@H]1OC(C(=O)N2CCN(Cc3ccc4c(c3)OCO4)CC2)=C[C@H](c2ccc(C(F)(F)F)cc2)[C@H]1CCCOC(=O)NCCCCCC(=O)NO	inactive: 0.994
O=C(C[C@H]1C[C@@H]2c3cc(NC(=O)Nc4ccccc4)ccc3O[C@@H]2[C@H](CO)O1)NCCN1CCCCC1	inactive: 0.976
C[C@H]1CN([C@@H](C)CO)C(=O)c2cccc(NS(=O)(=O)c3ccc(F)cc3)c2O[C@@H]1CN(C)Cc1ccc(Cl)c(Cl)c1	inactive: 1.02
C[C@@H]1CN([C@@H](C)CO)C(=O)c2cc(NC(=O)Nc3ccc(C(F)(F)F)cc3)ccc2O[C@@H](C)CCCCO[C@H]1CN(C)Cc1ccc2c(c1)OCO2	inactive: 0.991
CC(C)NC(=O)N(C)C[C@H]1Oc2ccc(NS(=O)(=O)c3ccccc3)cc2CC(=O)N([C@@H](C)CO)C[C@@H]1C	inactive: 0.972
O=C(Cn1cc([N+](=O)[O-])cn1)n1cccn1	inactive: 0.966
C[C@@]1(NC(=O)Cc2ccc(S(=O)(=O)N3CCOCC3)s2)CCS(=O)(=O)C1	inactive: 1.01
C[C@H](CO)N1C[C@H](C)[C@@H](CN(C)S(=O)(=O)c2cn(C)cn2)Oc2c(NC(=O)Nc3ccc4c(c3)OCO4)cccc2C1=O	inactive: 1.02
C=CCNC1=C2C[C@H](C)C[C@H](OC)[C@@H](O)[C@H](C)/C=C(\C)[C@H](OC(N)=O)[C@H](OC)/C=C/C=C(\C)C(=O)NC(=CC1=O)C2=O	inactive: 0.981
CC(C)N1CC[C@@H](CNCc2ccc(Oc3ccccc3)cc2)Oc2c(NC(=O)c3ccncc3)cccc2C1=O	inactive: 1.03
C[C@@H]1CCCCO[C@H](CN(C)C(=O)c2ccncc2)[C@@H](C)CN([C@H](C)CO)C(=O)c2cc(NC(=O)NC3CCCCC3)ccc2O1	inactive: 0.989
Cc1noc(C)c1NC(=O)Nc1ccc2c(c1)C(=O)N([C@H](C)CO)C[C@@H](C)[C@H](CN(C)S(=O)(=O)c1cccs1)OCCCC[C@H](C)O2	inactive: 0.988
C[C@@H]1CCCCO[C@H](CN(C)C(=O)Nc2ccc(C(F)(F)F)cc2)[C@@H](C)CN([C@@H](C)CO)C(=O)c2cc(NS(=O)(=O)c3ccc(Cl)cc3)ccc2O1	inactive: 1
CC(=O)NCCCCCC(=O)O	inactive: 0.987
C[C@@H]1CN([C@H](C)CO)C(=O)Cc2cc(NC(=O)Cc3cn(C)c4ccccc34)ccc2O[C@H]1CN(C)CC1CCCCC1	inactive: 1.02
C[C@@H]1CN([C@H](C)CO)C(=O)Cc2cc(NS(C)(=O)=O)ccc2O[C@@H]1CN(C)S(=O)(=O)c1ccc(F)cc1	inactive: 1.01
C[C@@H]1CN([C@@H](C)CO)C(=O)c2cccc(NC(=O)c3cnccn3)c2O[C@H]1CN(C)CC1CCCCC1	inactive: 1
C[C@H]1CN([C@@H](C)CO)C(=O)Cc2cc(NS(=O)(=O)c3cccs3)ccc2O[C@@H]1CN(C)S(=O)(=O)c1cn(C)cn1	inactive: 1.02

SMILES	relative growth
O=C(NO)c1ccc(C(=O)N/N=C/[C@H](O)[C@@H](O)[C@H](O)[C@H](O)CO[C@H]2O[C@H](CO)[C@H](O)[C@H](O)[C@H]2O)cc1	inactive: 1
CC(C)(C)OC(=O)NC(=NCCCn1cc(-c2cccc(/C=C/C(=O)NO)c2)nn1)NC(=O)OC(C)(C)C	inactive: 1.03
COc1ccc(S(=O)(=O)N[C@H]2C=C[C@@H](CC(=O)N3CCC(Cc4ccccc4)CC3)O[C@H]2CO)cc1	inactive: 1
Cc1ccc(S(=O)(=O)Nc2ccc3c(c2)C(=O)N([C@H](C)CO)C[C@H](C)[C@H](CN(C)Cc2ccc(C(F)(F)F)cc2)O3)cc1	inactive: 1.02
C/C=C/c1cccc(-c2nc(C(=O)NCc3ccc(OC)cc3)cc3c2[C@@H](CCO)N([S@](=O)C(C)(C)C)C3)c1	inactive: 1.01
CCCC#Cc1ccc2c(c1)O[C@H](CN(C)Cc1ccc3c(c1)OCO3)[C@H](C)CN([C@@H](C)CO)S2(=O)=O	inactive: 0.991
C[C@@H]1CN([C@H](C)CO)C(=O)c2cc(NC(=O)CCN3CCOCC3)ccc2O[C@@H]1CN(C)Cc1ccc(C(=O)O)cc1	inactive: 1.01
C[C@@H]1CN([C@H](C)CO)C(=O)Cc2cc(NS(C)(=O)=O)ccc2O[C@H]1CN(C)C(=O)NC1CCCCC1	inactive: 0.996
C[C@@H]1CN([C@H](C)CO)C(=O)Cc2cc(NC(=O)CCCN(C)C)ccc2O[C@H]1CN(C)S(=O)(=O)c1ccccc1	inactive: 0.948
C[C@@H]1CCCCO[C@H](CN(C)S(=O)(=O)c2ccc(Cl)cc2)[C@H](C)CN([C@@H](C)CO)C(=O)c2cc(NC(=O)Nc3ccc4c(c3)OCO4)ccc2O1	inactive: 1.03
C[C@H]1CN([C@@H](C)CO)C(=O)c2cc(NC(=O)CCCN(C)C)ccc2O[C@@H]1CN(C)S(=O)(=O)c1ccccc1	inactive: 0.979
C[C@H]1CN([C@@H](C)CO)C(=O)c2ccccc2-c2ccccc2CO[C@H]1CN(C)C(=O)Nc1ccc(-c2ccccc2)cc1	inactive: 1.04
CN(C)C(=O)C[C@@H]1CC[C@@H](NC(=O)C2CC2)[C@@H](CO)O1	inactive: 0.992
C[C@@H]1CN([C@H](C)CO)C(=O)Cc2cc(NS(=O)(=O)c3ccc(F)cc3)ccc2O[C@H]1CN(C)Cc1ccc(Oc2ccccc2)cc1	inactive: 0.988
COc1ccc(NC(=O)Nc2ccc3c(c2)C(=O)N([C@H](C)CO)C[C@@H](C)[C@H](CN(C)Cc2ccccc2)OCCCC[C@@H](C)O3)cc1	inactive: 0.983
C[C@@H]1CN([C@@H](C)CO)C(=O)c2cccc(NC(=O)c3ccc(-c4nccs4)cc3)c2O[C@H]1CN(C)Cc1ccc(C(=O)O)cc1	inactive: 1
CO[C@H](C(=O)[C@@H](O)[C@@H](C)O)[C@@H]1Cc2cc3cc(O[C@H]4C[C@@H](O[C@H]5C[C@@H](O)[C@H](O)[C@@H](C)O5)[C@@H](O)[C@@H](C)O4)c(C)c(O)c3c(O)c2C(=O)[C@H]1O[C@H]1C[C@@H](O[C@H]2C[C@@H](O[C@H]3C[C@](C)(O)[C@H](O)[C@@H](C)O3)[C@H](O)[C@@H](C)O2)[C@H](O)[C@@H](C)O1	inactive: 1.02
O=C(CCCCCCC(=O)Nc1cccc(C(=O)NCCOCCOCCNC(=O)c2cccc(NC(=O)CCCCCCC(=O)NO)c2)c1)NO	inactive: 1.02
O=C(O)c1cc(=O)[nH]c(=O)[nH]1	inactive: 1.01

SMILES	relative growth
O=C(NCC1CC1)[C@H]1[C@H](CO)[C@H]2Cn3c(cccc3=O)[C@@H]1N2C(=O)c1cccnc1	inactive: 0.975
COc1ccc(S(=O)(=O)Nc2ccc3c(c2)CC(=O)N([C@@H](C)CO)C[C@@H](C)[C@H](CN(C)Cc2ccc(C(=O)O)cc2)O3)cc1	inactive: 1.01
C[C@H](CO)N1C[C@H](C)[C@H](CN(C)Cc2ccc(Oc3ccccc3)cc2)Oc2ccc(NC(=O)Nc3ccc4c(c3)OCO4)cc2C1=O	inactive: 1.04
C/C=C/c1ccc2c(c1)O[C@H](CN(C)S(=O)(=O)c1ccc(F)cc1)[C@H](C)CN([C@H](C)CO)S2(=O)=O	inactive: 0.998
O=C(C[C@H]1CC[C@@H]2[C@H](COC[C@H](O)CN2C(=O)Nc2ccc(F)cc2)O1)NCCCN1CCOCC1	inactive: 0.942
NCc1ccc(S(=O)(=O)O)cc1	inactive: 0.993
C[C@@H]1CN([C@H](C)CO)C(=O)c2cccc(NC(=O)CCCCCC(=O)Nc3ccccc3N)c2O[C@@H]1CN(C)Cc1ccccc1	inactive: 1
Cc1ccc(S(=O)(=O)N(C)C[C@@H]2Oc3c(NC(=O)c4cc(C)nn4C)cccc3C(=O)N([C@H](C)CO)C[C@H]2C)cc1	inactive: 1
C[C@@H]1CCCCO[C@H](CN(C)C(=O)Cc2ccccc2)[C@@H](C)CN([C@H](C)CO)C(=O)c2cc(NC(=O)Nc3ccc4c(c3)OCO4)ccc2O1	inactive: 1.03
C[C@H](CO)N1C[C@H](C)[C@H](CN(C)Cc2ccc(C(F)(F)F)cc2)Oc2ccc(NC(=O)Nc3ccccc3)cc2C1=O	inactive: 1.03
CCc1nnc(SCC(=O)O)n1N	inactive: 0.992
CCO[C@H]1OC(C(=O)N2CCN(Cc3ccccc3)CC2)=C[C@@H](c2cn(C(C)=O)c3ccccc23)[C@@H]1CCCOC(=O)NCCCCCC(=O)NO	inactive: 0.978
O=C(C[C@H]1CC[C@H]2[C@@H](COC[C@@H](O)CN2C(=O)Nc2cccc(Cl)c2)O1)NCCCN1CCOCC1	inactive: 0.877
CC(C)CC#Cc1ccc2c(c1)O[C@H](CN(C)C(=O)c1cccnc1)[C@H](C)CN([C@H](C)CO)S2(=O)=O	inactive: 0.976
COc1ccc(NC(=O)Nc2ccc3c(c2)C(=O)N([C@H](C)CO)C[C@@H](C)[C@H](CN(C)S(=O)(=O)c2ccc(F)cc2)OCCCC[C@H](C)O3)cc1	inactive: 1.04
NCC[C@@H]1CC[C@H](NC(=O)NC2CCCCC2)[C@H](CO)O1	inactive: 0.996
C[C@@H]1CN([C@@H](C)CO)C(=O)c2ccccc2-c2ccccc2CO[C@@H]1CN(C)Cc1ccc(Oc2ccccc2)cc1	inactive: 1.02
O=C1c2ccccc2[C@](Cc2ccccc2I)(C(=O)NCc2ccccc2)[C@H](c2ccc(CO)cc2)N1C1CCCCC1	inactive: 1.01
CC(=O)n1cc([C@@H]2C=C(C(=O)N3CCOCC3)O[C@H](OCCCCOC(=O)NCCCCCC(=O)NO)C2)c2ccccc21	inactive: 0.981
